Results reported in PubChem BioAssay AID463173 (ICCB-Longwood Screening Facility, Harvard Medical School, 2010).
The campaign covered roughly 52,000 compounds. About 4,300 (8.3%) were called active. No stated cut-off is given here; in the data, active means survival mostly below about 52% (no sharp cut-off); inactive means mostly above about 56%. The list shows a part of the results.

What follows are compounds tested on DeltatarO mutant (assay: S. aureus survival, RN4220 and DeltatarO strains – OD600, teichoic acid synthesis inhibitors, primary screen (AID 463173)). Settings: S. aureus RN4220 wild type/DeltatarO growth, OD600, 18 h, stronger effect = lower value, screened at 18.75 µg/mL (by protocol).

| Structure (SMILES) | survival |
| --- | --- |
| Cc1nnc(NC(=O)CSCc2cc(=O)c3ccccc3[nH]2)s1 | inactive: 105% |
| COc1cc(OC)c(NS(=O)(=O)c2c(C(=O)N3CCC(C)CC3)c(C)n(C)c2C)cc1Cl | active: 17% |
| CCOC(=O)c1c(N2C(=O)C3C4C=CC(O4)C3C2=O)sc2c1CCCC2 (stereo unspecified) | inactive: 96% |
| Cc1cc(Nc2ccc(C(=O)O)c(O)c2)n2ncnc2n1 | inactive: 72% |
| COc1ccc(CCNC(=O)CCn2c(=O)c3ccccc3n(Cc3ccccc3)c2=O)cc1OC | inactive: 92% |
| CC(C)c1nn2c(=O)cc(COC(=O)c3ccccc3NC(=O)c3cccc(Cl)c3)nc2s1 | inactive: 88% |
| O=C(NCc1ccco1)c1ccc2c(c1)N(Cc1ccc(Cl)cc1)C(=O)c1ccccc1S2 | inactive: 71% |
| CCOc1ccc(Nc2nc3c(S(=O)(=O)c4ccc(C(C)C)cc4)nnn3c3ccsc23)cc1 | inactive: 53% |
| Cc1cc2nc(-c3ccc(NC(=O)c4cc5ccccc5o4)cc3)oc2cc1C | inactive: 51% |
| Cc1ccc(C)c(Cn2c(C(=O)OC(C)C)cc3c2ccn3C)c1 | inactive: 100% |
| COc1ccc(CCn2c3c(c(=O)[nH]c2=O)C(NC(=O)c2ccc(C(C)(C)C)cc2)(C(F)(F)F)C(=O)N3)cc1OC (stereo unspecified) | inactive: 91% |
| COc1ccccc1Cc1nc2ccccc2nc1SCC(=O)N1CCN(c2ccccc2)CC1 | inactive: 99% |
| CC(=O)c1cc(-c2ccc(F)cc2)n(CC(=O)Nc2cc(C)cc(C)c2)c1C | inactive: 93% |
| COc1cccc(NC(=O)/C(C#N)=C/c2c(C)n(Cc3ccc(Cl)cc3)c3ccccc23)c1 | inactive: 77% |
| CC(=O)Nc1ccc(S(=O)(=O)NC2=NCN(CCO)CN2)cc1 | inactive: 89% |
| Fc1cccc(-c2nnn3c2nc(NC2CCCCC2)c2ccccc23)c1 | inactive: 59% |
| CC(C)C(c1nnnn1C1CCCC1)N(Cc1ccc(Cl)cc1)CC1CCCO1 (stereo unspecified) | inactive: 92% |
| COc1ccccc1CNC(=O)CN1C(=O)COc2ccc(S(=O)(=O)NC3CCCC3)cc21 | inactive: 95% |
| O=C(C1CCN(S(=O)(=O)Cc2ccccc2)CC1)N1CCN(c2cccc(C(F)(F)F)c2)CC1 | inactive: 86% |

| Structure (SMILES) | survival |
| --- | --- |
| CC1CCN(CC2CCN(C(=O)Nc3ccc(Br)cc3F)CC2)CC1 | inactive: 67% |
| Cc1cccc(-n2c(CNC(=O)c3cccc(F)c3)nnc2SCC(=O)Nc2ccccc2F)c1 | inactive: 68% |
| COc1cc(S(=O)(=O)NCCc2c(C)[nH]c3ccccc23)c(C)cc1C | inactive: 56% |
| CCc1cccc(-n2c(=O)c3cccnc3n2CC(=O)Nc2c(C)cc(C)cc2C)c1 | inactive: 74% |
| COc1ccc(N(Cc2cc3cccc(C)c3[nH]c2=O)C(=O)c2cccc(Cl)c2)cc1 | inactive: 67% |
| NCCCC(=O)OC1CCCCC1 | inactive: 100% |
| On1c2c(c3c4nonc4ccc31)CCCC2 | active: 0% |
| COc1ccc2nc(N(Cc3cccnc3)C(=O)Cc3ccccc3)sc2c1 | inactive: 99% |
| Nc1nc(-c2ccccc2)nn1C(=O)c1cccs1 | inactive: 77% |
| CN(C)S(=O)(=O)c1ccc(C(=O)NCCSc2c(-c3ccccc3)[nH]c3ccccc23)cc1 | inactive: 68% |
| CC(=O)N1CCc2cc(S(=O)(=O)C(C)CC(=O)Nc3ccc(Br)c(C)c3)ccc21 (stereo unspecified) | active: -5% |
| COc1ccc(NC(=O)CSc2nc3c(oc4ccccc43)c(=O)n2Cc2ccco2)cc1Cl | inactive: 101% |
| CC1CCN(S(=O)(=O)c2nnc(NC(=O)c3cccc(Cl)c3)s2)CC1 | active: 23% |
| COc1ccc(CNC(=O)CN2C(=O)CSc3ccc(S(=O)(=O)N4CCC(C)CC4)cc32)cc1 | inactive: 69% |
| COc1ccc(/C=C/C(=O)Nc2nc(-c3cccs3)ns2)cc1 | inactive: 51% |
| COc1ccc(CNC(=O)C2CCC(CNS(=O)(=O)c3ccc4c(c3)CCCC(=O)N4)CC2)cc1 (stereo unspecified) | inactive: 87% |
| COc1cc(-c2nc(Cn3nnc(C(=O)Nc4cccc(Cl)c4)c3C)c(C)o2)cc(OC)c1OC | inactive: 80% |
| CCc1ccc(C(=O)NCC2(c3ccccc3)CCOCC2)o1 | inactive: 103% |
| Cc1ccc(Cl)cc1-n1ncc2c(N3CCN(Cc4ccccc4)CC3)ncnc21 | inactive: 109% |

| Structure (SMILES) | survival |
| --- | --- |
| CCOC(=O)c1c(NC(=O)c2ccc(S(=O)(=O)N(C)C3CCCCC3)cc2)sc2c1CCN(C(C)C)C2 | inactive: 69% |
| Cc1noc(C)c1S(=O)(=O)N(CC(=O)NCCc1ccccc1)c1ccc(C(C)C)cc1 | inactive: 110% |
| CCOCCCN1C(=O)c2ccccc2CC1(C)C(=O)NC1CCCCC1 (stereo unspecified) | inactive: 94% |
| Cc1cc(C)c(NC(=O)C2CCN(c3nn4c(=O)cc(C)nc4s3)CC2)c(C)c1 | inactive: 103% |
| COc1ccc(NCc2cccn2-c2nnc(N3CCCCC3)s2)cc1OC | inactive: 73% |
| Cc1ccc2nc(COc3ccccc3NC(=O)c3ccc(F)cc3)cc(=O)n2c1 | active: 20% |
| Cc1cc(C)cc(NC(=O)Cn2cc(C(=O)C3CCCCC3)c3ccccc32)c1 | inactive: 81% |
| O=C(CSc1nc2c([nH]c3ccccc32)c(=O)n1-c1ccc(Cl)cc1)c1ccccc1 | inactive: 94% |
| Cc1[nH]n(-c2ccc(Cl)cc2)c(=O)c1C(=O)c1ccccc1 | active: 40% |
| O=C(CSC1=Nc2ccccc2N=C(c2ccc(F)cc2)C1)Nc1ccccc1 | inactive: 85% |
| CCOc1ccc(NS(=O)(=O)c2ccc3c(c2)CCCN3C(=O)C2CCC2)cc1 | inactive: 67% |
| COc1ccccc1CNC(=O)c1cn(C)c2ccc(S(=O)(=O)N(C)C3CCCCC3)cc2c1=O | inactive: 60% |
| CCOC(=O)CSc1nc2c(sc3ccccc32)c(=O)n1CCO | active: -5% |
| COc1ccc(OCC(O)Cn2c(NCCO)nc3c2c(=O)n(C)c(=O)n3C)cc1 (stereo unspecified) | inactive: 76% |
| Cc1nn(CC(=O)N2CCN(c3ccc(Cl)cc3)CC2)c(=O)c2cccn12 | inactive: 89% |
| CCN(CC)CCCNc1ncnc2c1cnn2-c1ccc(C)c(C)c1 | inactive: 78% |
| Cc1csc2nc(COc3cccc(NC(=O)c4ccccc4F)c3)cc(=O)n12 | inactive: 123% |
| CC1CCCCN1C(=O)c1cc(-c2ccc(Br)cc2)on1 (stereo unspecified) | inactive: 66% |
